Reference: paper PMC9986587
Results are given in words; binding and its absence hold for the method and conditions named. Binding seen in cells or lysates may run through a third protein. Some entries that bind do so weakly or less than the wild type. For part of these data: Where a sequence is shown, tags or fusion partners need not be part of it.

T1: Flag-JMJD1A (UniProt Q9Y4C1)
T1 sequence: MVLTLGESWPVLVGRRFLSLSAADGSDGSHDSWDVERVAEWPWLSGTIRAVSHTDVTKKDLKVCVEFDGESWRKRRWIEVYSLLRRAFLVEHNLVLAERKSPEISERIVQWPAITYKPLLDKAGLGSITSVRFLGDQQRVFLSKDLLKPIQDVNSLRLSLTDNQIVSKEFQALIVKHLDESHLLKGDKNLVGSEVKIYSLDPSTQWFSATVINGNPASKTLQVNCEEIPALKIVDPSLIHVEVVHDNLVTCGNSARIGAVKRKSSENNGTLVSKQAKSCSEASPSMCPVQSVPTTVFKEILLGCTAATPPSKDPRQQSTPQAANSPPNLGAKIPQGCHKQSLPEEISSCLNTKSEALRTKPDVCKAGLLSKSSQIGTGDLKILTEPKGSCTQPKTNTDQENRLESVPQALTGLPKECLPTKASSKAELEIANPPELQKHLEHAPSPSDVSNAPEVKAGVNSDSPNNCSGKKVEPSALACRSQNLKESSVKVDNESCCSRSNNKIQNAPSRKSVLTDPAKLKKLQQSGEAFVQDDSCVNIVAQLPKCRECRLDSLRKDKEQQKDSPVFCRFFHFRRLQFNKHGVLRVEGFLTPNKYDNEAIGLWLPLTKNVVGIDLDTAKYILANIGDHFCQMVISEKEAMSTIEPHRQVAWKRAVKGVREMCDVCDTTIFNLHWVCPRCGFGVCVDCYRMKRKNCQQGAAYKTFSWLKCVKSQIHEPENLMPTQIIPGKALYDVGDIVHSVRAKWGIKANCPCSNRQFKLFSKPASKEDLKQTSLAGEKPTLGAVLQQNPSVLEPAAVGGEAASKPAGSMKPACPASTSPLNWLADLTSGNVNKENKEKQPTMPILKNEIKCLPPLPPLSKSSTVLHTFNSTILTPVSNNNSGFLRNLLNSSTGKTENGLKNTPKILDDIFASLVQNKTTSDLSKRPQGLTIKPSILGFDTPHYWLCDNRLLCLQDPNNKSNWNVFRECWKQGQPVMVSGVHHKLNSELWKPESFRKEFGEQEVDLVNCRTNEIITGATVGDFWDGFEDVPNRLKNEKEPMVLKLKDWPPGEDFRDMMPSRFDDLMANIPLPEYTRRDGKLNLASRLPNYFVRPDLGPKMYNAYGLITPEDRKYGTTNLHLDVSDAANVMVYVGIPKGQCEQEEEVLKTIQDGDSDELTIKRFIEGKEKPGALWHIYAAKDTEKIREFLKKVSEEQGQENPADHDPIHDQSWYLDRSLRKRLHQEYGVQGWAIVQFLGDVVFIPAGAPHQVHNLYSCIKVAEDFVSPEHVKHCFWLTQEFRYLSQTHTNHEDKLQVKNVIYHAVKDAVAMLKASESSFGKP

T2: Flag-tagged JMJD1A amino acids 2-650 (UniProt Q9Y4C1)
T2 sequence: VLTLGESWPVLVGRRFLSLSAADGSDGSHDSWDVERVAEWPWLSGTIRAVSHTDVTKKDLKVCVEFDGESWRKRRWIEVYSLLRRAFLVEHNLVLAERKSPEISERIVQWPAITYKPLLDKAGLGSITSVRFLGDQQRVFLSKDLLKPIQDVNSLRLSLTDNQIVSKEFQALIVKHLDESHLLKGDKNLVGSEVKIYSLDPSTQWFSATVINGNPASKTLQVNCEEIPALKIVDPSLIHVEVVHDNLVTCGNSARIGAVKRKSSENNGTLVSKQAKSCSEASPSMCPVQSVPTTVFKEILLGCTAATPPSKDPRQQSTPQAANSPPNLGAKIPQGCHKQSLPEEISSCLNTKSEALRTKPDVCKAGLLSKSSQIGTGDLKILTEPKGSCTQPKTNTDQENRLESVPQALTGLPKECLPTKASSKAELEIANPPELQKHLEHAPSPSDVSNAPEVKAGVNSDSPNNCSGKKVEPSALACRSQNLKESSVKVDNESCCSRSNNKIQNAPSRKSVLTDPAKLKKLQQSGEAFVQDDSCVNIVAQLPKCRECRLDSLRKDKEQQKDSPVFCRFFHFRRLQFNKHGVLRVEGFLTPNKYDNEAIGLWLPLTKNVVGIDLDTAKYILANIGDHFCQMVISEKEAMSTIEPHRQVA

T3: endogenous JMJD1A (human (endogenous in HCT116)) (UniProt Q9Y4C1)
T3 sequence: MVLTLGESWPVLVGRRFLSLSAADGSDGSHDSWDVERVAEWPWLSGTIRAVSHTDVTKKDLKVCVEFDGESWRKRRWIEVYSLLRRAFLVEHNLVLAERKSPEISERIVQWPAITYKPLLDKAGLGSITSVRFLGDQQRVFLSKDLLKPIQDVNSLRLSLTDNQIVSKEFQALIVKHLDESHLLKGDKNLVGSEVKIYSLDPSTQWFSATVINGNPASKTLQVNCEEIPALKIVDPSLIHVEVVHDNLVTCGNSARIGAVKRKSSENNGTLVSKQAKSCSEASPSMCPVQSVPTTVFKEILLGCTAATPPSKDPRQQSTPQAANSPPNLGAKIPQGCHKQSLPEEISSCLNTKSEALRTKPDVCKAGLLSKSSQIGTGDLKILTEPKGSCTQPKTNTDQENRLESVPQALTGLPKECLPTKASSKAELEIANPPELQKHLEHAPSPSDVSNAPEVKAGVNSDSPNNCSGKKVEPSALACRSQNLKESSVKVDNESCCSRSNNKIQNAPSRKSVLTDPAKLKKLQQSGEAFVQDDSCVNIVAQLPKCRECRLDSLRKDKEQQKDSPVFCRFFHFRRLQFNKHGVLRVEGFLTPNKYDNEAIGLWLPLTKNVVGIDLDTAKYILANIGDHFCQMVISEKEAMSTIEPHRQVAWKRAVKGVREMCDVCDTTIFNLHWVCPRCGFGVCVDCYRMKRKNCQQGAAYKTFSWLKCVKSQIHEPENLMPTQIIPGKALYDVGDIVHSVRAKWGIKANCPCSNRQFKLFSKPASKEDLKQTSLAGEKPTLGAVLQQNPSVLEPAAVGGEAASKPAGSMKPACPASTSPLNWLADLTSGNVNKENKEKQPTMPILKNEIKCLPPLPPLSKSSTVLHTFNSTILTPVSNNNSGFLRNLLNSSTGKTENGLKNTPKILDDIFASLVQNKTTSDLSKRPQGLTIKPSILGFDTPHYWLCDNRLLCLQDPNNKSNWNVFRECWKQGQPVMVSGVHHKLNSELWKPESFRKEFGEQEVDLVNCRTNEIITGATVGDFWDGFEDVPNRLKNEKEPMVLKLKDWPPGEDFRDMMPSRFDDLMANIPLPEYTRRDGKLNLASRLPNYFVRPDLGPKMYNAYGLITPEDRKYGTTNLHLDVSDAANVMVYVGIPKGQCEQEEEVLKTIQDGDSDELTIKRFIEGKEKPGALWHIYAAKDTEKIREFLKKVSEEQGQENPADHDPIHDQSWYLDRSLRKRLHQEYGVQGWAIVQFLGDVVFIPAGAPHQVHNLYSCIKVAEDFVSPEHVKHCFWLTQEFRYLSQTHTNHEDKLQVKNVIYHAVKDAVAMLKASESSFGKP


How the values were obtained:
[1] = target: T1, Flag-JMJD1A; experiment: co-IP; 293T cells transiently cotransfected with a Flag-tagged and a 6Myc-tagged protein; cell extracts two days after transfection; immunoprecipitation with anti-Flag antibodies, anti-Myc Western blot
[2] = target: T2, Flag-tagged JMJD1A amino acids 2-650; experiment: as above
[3] = target: T3, endogenous JMJD1A (human (endogenous in HCT116)); experiment: co-IP; endogenous proteins from HCT116 cells; immunoprecipitation with rabbit polyclonal anti-JMJD1A antibodies or control rabbit IgG, Western blot with anti-JMJD2A antibodies

binding [1] | binding [2] | binding [3] | Binder
binds | binds | – | 6Myc-JMJD2A (protein, UniProt O75164 1-1064) MASESETLNPSARIMTFYPTMEEFRNFSRYIAYIESQGAHRAGLAKVVPPKEWKPRASYDDIDDLVIPAPIQQLVTGQSGLFTQYNIQKKAMTVREFRKIANSDKYCTPRYSEFEELERKYWKNLTFNPPIYGADVNGTLYEKHVDEWNIGRLRTILDLVEKESGITIEGVNTPYLYFGMWKTSFAWHTEDMDLYSINYLHFGEPKSWYSVPPEHGKRLERLAKGFFPGSAQSCEAFLRHKMTLISPLMLKKYGIPFDKVTQEAGEFMITFPYGYHAGFNHGFNCAESTNFATRRWIEYGKQAVLCSCRKDMVKISMDVFVRKFQPERYKLWKAGKDNTVIDHTLPTPEAAEFLKESELPPRAGNEEECPEEDMEGVEDGEEGDLKTSLAKHRIGTKRHRVCLEIPQEVSQSELFPKEDLSSEQYEMTECPAALAPVRPTHSSVRQVEDGLTFPDYSDSTEVKFEELKNVKLEEEDEEEEQAAAALDLSVNPASVGGRLVFSGSKKKSSSSLGSGSSRDSISSDSETSEPLSCRAQGQTGVLTVHSYAKGDGRVTVGEPCTRKKGSAARSFSERELAEVADEYMFSLEENKKSKGRRQPLSKLPRHHPLVLQECVSDDETSEQLTPEEEAEETEAWAKPLSQLWQNRPPNFEAEKEFNETMAQQAPHCAVCMIFQTYHQVEFGGFNQNCGNASDLAPQKQRTKPLIPEMCFTSTGCSTDINLSTPYLEEDGTSILVSCKKCSVRVHASCYGVPPAKASEDWMCSRCSANALEEDCCLCSLRGGALQRANDDRWVHVSCAVAILEARFVNIAERSPVDVSKIPLPRFKLKCIFCKKRRKRTAGCCVQCSHGRCPTAFHVSCAQAAGVMMQPDDWPFVVFITCFRHKIPNLERAKGALQSITAGQKVISKHKNGRFYQCEVVRLTTETFYEVNFDDGSFSDNLYPEDIVSQDCLQFGPPAEGEVVQVRWTDGQVYGAKFVASHPIQMYQVEFEDGSQLVVKRDDVYTLDEELPKRVKSRLSVASDMRFNEIFTEKEVKQEKKRQRVINSRYREDYIEPALYRAIME
– | – | binds | endogenous JMJD2A (protein, UniProt O75164 1-1064) MASESETLNPSARIMTFYPTMEEFRNFSRYIAYIESQGAHRAGLAKVVPPKEWKPRASYDDIDDLVIPAPIQQLVTGQSGLFTQYNIQKKAMTVREFRKIANSDKYCTPRYSEFEELERKYWKNLTFNPPIYGADVNGTLYEKHVDEWNIGRLRTILDLVEKESGITIEGVNTPYLYFGMWKTSFAWHTEDMDLYSINYLHFGEPKSWYSVPPEHGKRLERLAKGFFPGSAQSCEAFLRHKMTLISPLMLKKYGIPFDKVTQEAGEFMITFPYGYHAGFNHGFNCAESTNFATRRWIEYGKQAVLCSCRKDMVKISMDVFVRKFQPERYKLWKAGKDNTVIDHTLPTPEAAEFLKESELPPRAGNEEECPEEDMEGVEDGEEGDLKTSLAKHRIGTKRHRVCLEIPQEVSQSELFPKEDLSSEQYEMTECPAALAPVRPTHSSVRQVEDGLTFPDYSDSTEVKFEELKNVKLEEEDEEEEQAAAALDLSVNPASVGGRLVFSGSKKKSSSSLGSGSSRDSISSDSETSEPLSCRAQGQTGVLTVHSYAKGDGRVTVGEPCTRKKGSAARSFSERELAEVADEYMFSLEENKKSKGRRQPLSKLPRHHPLVLQECVSDDETSEQLTPEEEAEETEAWAKPLSQLWQNRPPNFEAEKEFNETMAQQAPHCAVCMIFQTYHQVEFGGFNQNCGNASDLAPQKQRTKPLIPEMCFTSTGCSTDINLSTPYLEEDGTSILVSCKKCSVRVHASCYGVPPAKASEDWMCSRCSANALEEDCCLCSLRGGALQRANDDRWVHVSCAVAILEARFVNIAERSPVDVSKIPLPRFKLKCIFCKKRRKRTAGCCVQCSHGRCPTAFHVSCAQAAGVMMQPDDWPFVVFITCFRHKIPNLERAKGALQSITAGQKVISKHKNGRFYQCEVVRLTTETFYEVNFDDGSFSDNLYPEDIVSQDCLQFGPPAEGEVVQVRWTDGQVYGAKFVASHPIQMYQVEFEDGSQLVVKRDDVYTLDEELPKRVKSRLSVASDMRFNEIFTEKEVKQEKKRQRVINSRYREDYIEPALYRAIME
